Data as given in PubChem BioAssay AID1347073 (National Center for Advancing Translational Sciences (NCATS), 2019).
About 200 (0.44%) of roughly 45,000 compounds were called active. Inconclusive results (about 7%) are left out. The call rests on the fitted dose curve; in most records, active means well fitted activation curve with a large enough effect; inconclusive means small, poorly fitted or top-dose-only effect; inactive means no such curve, though single readings can be large or run the other way. Some of the results follow.

Assay: qHTS of TDP-43 Inhibitors: NCGC Sytravon Library Screen; further: 0% is about no effect; nearly all actives have a fitted effect of over 55% in size
Conditions: yeast TDP-43 toxicity rescue, BacTiter-Glo growth, 24 h; series mostly up to 46.1 µM; growth rescue (activation): at the top concentration
Outline: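 TDP-43-expressing yeast, pregrown in raffinose, seeded at OD600 0.02 in galactose medium with compound for 24 hr at 30 deg C. Growth read by BacTiter-Glo luminescence, so rescue of toxicity appears as activation.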

Row | SMILES | growth rescue (activation)
1 | N#Cc1c(NC(=O)COC(=O)c2ccc(S(=O)(=O)N3CCCC3)cc2)sc2c1CCCCC2 | inactive: -4.63%
2 | O=C(/C=C/Nc1ccc(Oc2ccccc2Cl)cc1)c1ccco1 | inactive: 5.17%
3 | Cc1nc(Cl)cc(N/N=C/c2ccc(O)cc2O)n1 | inactive: 0.669%
4 | N#CC1(c2ccccc2)CCC(=O)N1Cc1ccccc1 (stereo not drawn) | inactive: -9.25%
5 | CS(=O)(=O)c1ccc(C(=O)Nc2ccc(N3CCOCC3)cc2)c(Cl)c1 | inactive: -6.58%
6 | Cc1oc2ccc(O)c(CN(C)C)c2c1C(=O)c1ccccc1 | inactive: 0.641%
7 | CCc1nc2ccc(C(=O)Nc3ccc(C(N)=O)cc3)cn2c1N(C)CCC(C)C | inactive: 7.06%
8 | CC(=O)c1c(C)[nH]c(C(=O)CSc2nnc(N)s2)c1C | inactive: 2.39%
9 | O=C(/C=C/c1ccco1)N1CCN(c2ccc(F)cc2)CC1 | inactive: 10.1%
10 | O=C(CNCc1ccc(Cl)cc1)Nc1cccc(C(=O)O)c1 | inactive: -16.6%
11 | O=C(Cn1c2c(sc1=O)C1c3ccccc3OCC1CS2)Nc1ccc(Cl)c(Cl)c1 (stereo not drawn) | inactive: -10.9%
12 | COc1ccc2nc(N/C(=N/S(=O)(=O)c3cccs3)c3ccccc3Cl)sc2c1 | inactive: 2.42%
13 | O=C(CN1CCN(C(=O)C2CCCO2)CC1)Nc1ccc(Cl)cc1 (stereo not drawn) | inactive: 11.9%
14 | CC(=O)n1c(C=Nc2ccc(Cl)cc2)c(O)c2ccccc21 | inactive: 7.97%
15 | Cc1ccccc1NC(=S)N(Cc1ccco1)C(C)c1ccccn1 (stereo not drawn) | inactive: -3.63%
16 | COc1ccc(CNC(=O)C/C(C)=N/NC(=O)c2cnccn2)cc1 | inactive: 22.2%
17 | O=C(NNc1ccccc1)Nc1ccccc1F | inactive: -59.2%
18 | CC1CCN(C(=O)c2ccc3c(c2)OCCO3)CC1 | inactive: 12%
19 | CCOc1ccccc1NC(=S)C(=C([O-])c1ccc2c(c1)OCCO2)[n+]1ccc(CC)cc1 | inactive: -3.24%
20 | CCC1CCCCN1S(=O)(=O)c1ccc(NC(=O)C2CC(=O)N(C(C)(C)C)C2)cc1 (stereo not drawn) | inactive: 5.74%
21 | Cc1nc(Nc2ccc(Cl)cc2)c2oc3ccccc3c2n1 | inactive: 7.63%
22 | CCOc1ccc(CCNC(=O)COC(=O)c2ccccc2O)cc1OCC | inactive: 21.4%
23 | COc1ccc2c(CSc3nnc(-c4cccnc4)n3-c3ccccc3F)cc(=O)oc2c1 | inactive: 3.07%

Row | SMILES | growth rescue (activation)
24 | COc1ccc(-n2cnnc2SCC(=O)N(C)c2ccccc2)cc1 | inactive: -21.7%
25 | Cc1ccc(NC(=O)C2C3C=CC(O3)C2C(=O)O)c(C)c1 (stereo not drawn) | inactive: 3.29%
26 | COc1cccc(OC)c1OCCCOc1ccc(C)cc1Br | inactive: -12.1%
27 | CCn1c(SCC(=O)N/N=C/C=C/c2ccco2)nnc1-c1ccccc1 | inactive: -16.8%
28 | CC(C)N1CCN(Cc2cnc(-c3ccccc3)s2)CC1CCO (stereo not drawn) | inactive: 0.449%
29 | O=C(NC1CCC(O)CC1)c1cc(Cl)c2c(c1)OCCO2 (stereo not drawn) | inactive: 4.87%
30 | COC(=O)C(NC(=O)c1cccnc1Cl)C(C)C (stereo not drawn) | inactive: 26.9%
31 | Cc1ccc(S(=O)(=O)N2CCOCC2)cc1NC(=O)COC(=O)COc1ccccc1[N+](=O)[O-] | inactive: 1.43%
32 | CC(=O)NC(c1ccccc1)c1nc(-c2cccc(C(C)C)c2)cs1 (stereo not drawn) | inactive: 10.7%
33 | O=C(NCc1ccccc1)c1c(Cl)nc(Cl)c(Cl)c1Cl | inactive: 22.5%
34 | Oc1ccccc1/C=N/[n+]1ccccc1 | inactive: -0.347%
35 | Cc1ccc(O)c(C(=O)c2cc(C#N)c(=O)n(Cc3ccccc3)c2)c1 | inactive: 4.59%
36 | Cc1ccc(S(=O)(=O)NC(=S)c2ccccc2)cc1 | inactive: 14.5%
37 | O=C(COC(=O)c1ccc(Br)cc1)NCC1CCCO1 (stereo not drawn) | inactive: 15%
38 | COc1ccc(/C=C/C(=O)c2cccc(-n3cnnn3)c2)cc1O | inactive: -2.26%
39 | CC(C)CN(C(=O)CSc1nn(-c2ccc(Cl)cc2)c(=S)s1)C1CCS(=O)(=O)C1 (stereo not drawn) | inactive: 1.99%
40 | CC(C)=CCN1CCN(Cc2nc(C(C)C)cs2)CC1CCO (stereo not drawn) | inactive: -6.5%
41 | Oc1ccc(Cl)cc1/C=C/c1ccc2cccc(O)c2n1 | inactive: -93.4%
42 | Cc1cccc(N2CCN(Cc3nc(-c4ccccc4Cl)oc3C)CC2)n1 | inactive: 15.8%
43 | COc1ccc(OC)c(NC(=O)CN2CCc3ccccc3C2)c1 | inactive: 9.11%
44 | COc1cc(C(CC(=O)Nc2cccc(C)n2)N2Cc3ccccc3C2=O)cc(OC)c1OC (stereo not drawn) | inactive: -8.03%
45 | O=C(Nc1ccc(Cc2nc3ccccc3s2)cc1)c1ccncc1 | inactive: 20.1%
46 | CC(=O)c1cccc(NC(=S)Nc2ccn(Cc3cccc4ccccc34)n2)c1 | inactive: 24.6%

Row | SMILES | growth rescue (activation)
47 | COc1ccc(S(=O)(=O)Nc2ccccc2OC)cc1NC(=O)c1cc2ccccc2oc1=O | inactive: 0.92%
48 | N#Cc1c(SCC(=O)Nc2ccc(C(F)(F)F)cc2)sc2c(O)cc(=O)[nH]c12 | inactive: 8.69%
49 | O=C(Cn1cc(-c2ccccn2)nn1)NS(=O)(=O)c1cccc(OC(F)F)c1 | inactive: -3.67%
50 | COc1ccc(OC)c(Nc2nc(NCc3ccco3)c3ccccc3n2)c1 | inactive: 16.6%
51 | C[C@@H]1C[C@H](O)c2cc(Cl)ccc2N1 | inactive: -17.6%
52 | COc1ccc(N=C2NN=C(c3c(C)[nH]c4ccccc34)CS2)cc1 | inactive: 4.44%
53 | O=C(Nc1cccc(S(=O)(=O)N2CCOCC2)c1)c1ccc(Cl)c([N+](=O)[O-])c1 | inactive: -12.6%
54 | O=C(COC(=O)c1cncc(Br)c1)NC1CCCCC1 | inactive: -1.47%
55 | CCN(CC)CCn1c(NCc2cccc(OC)c2OC)nc2ccccc21 | inactive: 7.09%
56 | CC1(C)O[C@H]2[C@@H](O1)[C@@H](C(=O)Nc1ccc(F)c(F)c1)O[C@@H]1OC(C)(C)O[C@@H]12 | inactive: 13.7%
57 | Cc1ccc(-c2nc3ncccc3o2)cc1NC(=O)CC(C)C | inactive: 4.85%
58 | COc1ccc(CCNC(=O)COc2ccc(S(=O)(=O)NC(C)C)cc2)cc1OC | inactive: 1.99%
59 | C=CCNC(=O)/C(=C/c1cccc([N+](=O)[O-])c1)NC(=O)c1ccccc1 | inactive: 0.704%
60 | COc1ccc(NC(=O)C2=NN(C3CCS(=O)(=O)C3)C(=O)CC2)cc1S(N)(=O)=O (stereo not drawn) | inactive: 7.7%
61 | Cc1sc(NC(=O)Cn2[nH]c(=O)c3ccccc3c2=O)nc1-c1ccccc1 | inactive: 11.3%
62 | COc1cccc(C2CC(C(F)(F)F)n3nc(C(=O)Nc4c(C)n(C)n(-c5ccccc5)c4=O)cc3N2)c1 (stereo not drawn) | inactive: 8.26%
63 | CCn1c2ccccc2c2cc(CN3CCN(Cc4cc(OC)ccc4O)CC3)ccc21 | inactive: -8.4%
64 | Cc1onc(-c2c(F)cccc2Cl)c1C(=O)Nc1nccs1 | inactive: 6.4%
65 | CCN(CC)S(=O)(=O)c1ccc(C)c(NC(=O)CSc2nc3ccccc3[nH]2)c1 | inactive: 4.87%
66 | CC(=O)c1ccc(N(CC(=O)NC2CCCC2)C(=O)CNC(=O)c2cccs2)cc1 | inactive: -6.19%
67 | COc1ccc(/C=C/C(=O)NC(=S)Nc2ccc(S(N)(=O)=O)cc2)cc1 | inactive: -3.06%
68 | Cc1noc(C)c1C(=O)N1CCC1(C)C(=O)NS(=O)(=O)c1cccc(Cl)c1 (stereo not drawn) | inactive: -1.36%
